The other results are listed elsewhere or left out.
tested on: PfSIP2 AP2 domain 1 (GST-tagged); experiment: gcPBM binding intensity (ln(normalized median fluorescence intensity)); higher = stronger DNA binding
Outline: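 For binding intensity, the highest Masliner-normalised natural-log median intensity across replicate spots of either probe orientation was taken. Protein bound to the array was stained with Alexa488 anti-GST antibody and scanned at 488 nm. The protein, GST-tagged P. falciparum DNA-binding domains from E. coli at about 25 μg on average, had been applied for 1 h to an Agilent 4 × 180k array of primer-extended double-stranded 36-bp intergenic genomic probes and negative controls.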

Going from “CGATATTCTAAGGATAGTACATAATAAAATAGAGTA [XGTACX_site4224]” to “ATTTATATTTTTTAATGTACATTTATATGTATACAA [XGTACX_site4555]”, the “gcPBM binding intensity (ln)” value rises from 6.92 to 6.99.

First: ATTTATGTTATTGTATGTACACAATATAATGTTATT [XGTACX_site5657]
Second: ATTCTACACGCACATACACACATATAAATATAAATA [CACACA_site7582]
The “gcPBM binding intensity (ln)” value of the first is lower: 7.24 for the first, 7.67 for the second.

Going from “AAAAAAAAATATATATATATATATATATAATAAAAA [CACACA_negctrl_site639]” to “AAAAAAAAAAAATGTGCACACGCGTACAGACAAAAA [CACACA_site2005]”, the “gcPBM binding intensity (ln)” value rises from 7.48 to 9.65.

First: TAAAAAGTACATTATTCATGGCCTATTACATTTTTT [GTGCAC_negctrl_site282]
Second: ATAATATATATGAAATGTACATAAATTTAATGCGAC [XGTACX_site5394]
The “gcPBM binding intensity (ln)” value of the first is lower: 6.89 for the first, 7.5 for the second.

Going from “ACACAAAAATAGTTTTTTATATTGTTAACCTTATAT [XGTACX_negctrl_site123]” to “ATATTTTACATATTTGCACACATATATTTAAATACA [CACACA_site4628]”, the “gcPBM binding intensity (ln)” value rises from 6.9 to 7.27.

First: ATGTGCACATGTAGAAGTACTTTTTCTTAAAATACT [XGTACX_site8341]
Second: TATGTTTTATATAAGATGCACTTTTGTTATGCTTCA
The “gcPBM binding intensity (ln)” value of the first is higher: 9.3 for the first, 8.55 for the second.

Going from “CAAATACACGGACACACACACACAAAAAAAAAAAAA [CACACA_site6385]” to “AAATTATTGTAAAATAGTACAGTGAAACATAAAGTT [XGTACX_site589]”, the “gcPBM binding intensity (ln)” value falls from 7.33 to 7.07.

Going from “TAAATACAAGTAAAAAGTACAGAAAAATTATATATA [XGTACX_site1758]” to “TTTATTTTGTTTTCTTGTACATAAATAATTACATAT [XGTACX_site4227]”, the “gcPBM binding intensity (ln)” value rises from 7.05 to 7.1.

Compared with “TTTATTTGGACATATACACACTTAAATATGTTTATT [CACACA_site6021]”, “AAGAGAAATGGGCACACACACACATATTATAGATAT [CACACA_site6828]” is higher in “gcPBM binding intensity (ln)” value: 6.91 for the first, 7.04 for the second.

Going from “TATAAAAAATTCAATACACACCATATATAAATATAT [CACACA_site6060]” to “TATAATAATTCATAATGTACTTTTATCAAAAAAGTA [XGTACX_site6868]”, the “gcPBM binding intensity (ln)” value rises from 6.81 to 6.82.

Going from “TGAAATGAAAGAACAGCACACATATATATTATATAT [CACACA_site8613]” to “TATATTTTTTAAAAAAGTACAAAGTAATTATTGATT [XGTACX_site2420]”, the “gcPBM binding intensity (ln)” value falls from 7.24 to 7.1.

Compared with “GTAGTACATTCTAGAATACACACCTATATATATATA [CACACA_site522]”, “ATATGAAAAACTTCATGTACTTATTATAAAATATAA [XGTACX_site2725]” is lower in “gcPBM binding intensity (ln)” value: 9.3 for the first, 6.88 for the second.

Going from “CTTTTTTTTTTGTATTGTACTTTATTTTTACATCGT [XGTACX_site2918]” to “ATTCTAATTTTATGAAACGATTATTTTGAATTCATT [XGTACX_negctrl_site578]”, the “gcPBM binding intensity (ln)” value falls from 7.16 to 6.93.

Compared with “ATTTTTAATTTTTTCACACATATATTTAAAATAAAA [CACACA_site4799]”, “GATTACCTTTTTTTTTTTTTTTTTTTTTTTTTTTTC [CACACA_negctrl_site147]” is lower in “gcPBM binding intensity (ln)” value: 7.09 for the first, 6.76 for the second.

Compared with “ATAAAAAAAAATATATGTACATATATAAATTGATAT [XGTACX_site7409]”, “TTATAGACATATATAGGTACACATATTTTCAATCCC [XGTACX_site8230]” is lower in “gcPBM binding intensity (ln)” value: 7.24 for the first, 6.98 for the second.

Compared with “ATTTATTAATCATATACACACATATATTTGTATTTA [CACACA_site1336]”, “TATTTTTTTAAAATAGGTACACAATCAAACATTTAT [XGTACX_site8785]” is lower in “gcPBM binding intensity (ln)” value: 7.05 for the first, 6.85 for the second.

First: ACCTCATAATATTTAACACACAAAATTATCTGTATG [CACACA_site5015]
Second: CGTCCAAAATATCCTTCACACACGAACAGTTTCATT [CACACA_site2729]
The “gcPBM binding intensity (ln)” value of the first is higher: 7.43 for the first, 7.13 for the second.

Compared with “TTTAAATAAAAATGGAGTACTCTAAAAAAAAAAAAA [XGTACX_site1233]”, “CTATAATATTATAACAGTACATAATATTATATATAT [XGTACX_site1414]” is higher in “gcPBM binding intensity (ln)” value: 7.24 for the first, 7.54 for the second.

Compared with “TTTATATAATATTCTACACACCAACAACAAACATAT [CACACA_site4478]”, “ATATATATATATAATACACACATAAATGAATATATA [CACACA_site316]” is higher in “gcPBM binding intensity (ln)” value: 7.51 for the first, 8.88 for the second.

Going from “GCATTGATCAAACATACACACATGGTTAATAAAAAT [CACACA_site2085]” to “GTGATTTCTATGAATTGTACTTAAATATAGTTATAT [XGTACX_site231]”, the “gcPBM binding intensity (ln)” value falls from 7.15 to 7.09.

Compared with “GTATATATCTCAGAGCATAATAGTATAATTCGGTCA [CACACA_negctrl_site876]”, “AATTATTTTAGAAACACACAAATTAGAAAAAACATA [CACACA_site7673]” is higher in “gcPBM binding intensity (ln)” value: 6.82 for the first, 7.22 for the second.

Compared with “AATATATATATAAATAGTACATATAAAGAGAATTTT [XGTACX_site3168]”, “CAGAAATATTCTTATACACACTGTTCTTATATTCCT [CACACA_site4318]” is lower in “gcPBM binding intensity (ln)” value: 7.12 for the first, 6.92 for the second.

Going from “ATTAAAACAAAATGTACACACATATAATTTAATGAC [CACACA_site878]” to “TTTATCTTTTTTTGTTGTACAGATGTTTATATTTTA [XGTACX_site4065]”, the “gcPBM binding intensity (ln)” value rises from 7.11 to 7.13.

Going from “AATAACATTATTTTATGTACACATGAAAAATAAAAT [XGTACX_site4657]” to “TGATATTTCATCATAGTGCAATATGGCATATAAATA [GTGCAC_site9433]”, the “gcPBM binding intensity (ln)” value rises from 7.24 to 7.66.

Going from “AATATCAAAATAACATGTACATGTTATATTTTATTT [XGTACX_site5891]” to “TGTAATAAACTACTTTTTTTTTTTTTTTTTTTTTTT [CACACA_negctrl_site1021]”, the “gcPBM binding intensity (ln)” value rises from 6.9 to 8.45.

Compared with “TTATTTATTTATTATAGTTCACTTGAAAATACAAGA [CACACA_negctrl_site1480]”, “CATATATACAGTAACACACACAAAAAAATATGAATA [CACACA_site3996]” is higher in “gcPBM binding intensity (ln)” value: 6.88 for the first, 7.09 for the second.

Compared with “TAATTTATAACACGCGCACACATATATATATAGTAA [CACACA_site121]”, “AATAGTGTCATAAAAACTATTATCATATAATGTGAA [CACACA_negctrl_site1578]” is lower in “gcPBM binding intensity (ln)” value: 7.32 for the first, 6.83 for the second.

First: TTTCTTTTTAACTCTTACATAATAGGTGGTAGAAGG [TGCATGCA_negctrl_site176]
Second: TTGTTGTGTATTATCGTGCACATAATATAAAAGATT
The “gcPBM binding intensity (ln)” value of the first is lower: 7.39 for the first, 10.1 for the second.

First: AAAAAATATAAAAAAACACACAAAAAAAAAAAAAAA [CACACA_site1382]
Second: TTCTTAAAAAATCAAACACACATATATAAATACATA [CACACA_site5301]
The “gcPBM binding intensity (ln)” value of the first is lower: 6.77 for the first, 7.03 for the second.

Compared with “AAAGACGTTTATAAATGTACATACACTTTAAAAGTT [XGTACX_site8753]”, “CCCCATTTATCTTAAGCATGCCATGGTTTTAGATAT [TGCATGCA_site24]” is higher in “gcPBM binding intensity (ln)” value: 7.02 for the first, 7.24 for the second.

First: ATAAAAAAAAAAAATACACACATATATATATATATA [CACACA_site1709]
Second: TTCTTAAATGTAAATGTATATGTATTAAAAAGAGAA [TGCATGCA_negctrl_site597]
The “gcPBM binding intensity (ln)” value of the first is higher: 9.45 for the first, 7.23 for the second.

Compared with “TTATAATATTAATGTGCACACAATTAAAATATTATA [CACACA_site2046]”, “TACTGTGTTTTGGTTGTACACACGCTACATTATATA [CACACA_site8863]” is lower in “gcPBM binding intensity (ln)” value: 9.4 for the first, 7.21 for the second.

Going from “ATAGTATACAGACACACACACACACCCATATATATA [CACACA_site1736]” to “AGGATATAAATATTCACACACACATGGAGATATATA [CACACA_site6317]”, the “gcPBM binding intensity (ln)” value falls from 7.57 to 6.93.

Going from “ATACTAAATGAACACACACACATATATATATATAAT [CACACA_site4232]” to “AAATAAATATATAATACACACAAAAATATAAAATGG [CACACA_site5943]”, the “gcPBM binding intensity (ln)” value rises from 7.17 to 7.22.

Compared with “TATAACTTTTTTATTACACACCTATGTAATATTATA [CACACA_site944]”, “AACAGACATAGAAACACACATACATACATACATACA [CACACA_site2479]” is higher in “gcPBM binding intensity (ln)” value: 7.01 for the first, 8.53 for the second.

Compared with “ATGTTTTATATTTTTTTTTTGTTTGCTTGTTTCCTC [CACACA_negctrl_site870]”, “AAGGGAAATATTGAAACACACACGAACCCACGTATT [CACACA_site252]” is lower in “gcPBM binding intensity (ln)” value: 6.81 for the first, 6.77 for the second.

Compared with “TATATTATAATAAGACGTACAAGGATGTTAAAACTT [XGTACX_site5828]”, “TACATTAACGGATTATTTCTCAATACAACATCATTT [CACACA_negctrl_site981]” is lower in “gcPBM binding intensity (ln)” value: 7.15 for the first, 6.9 for the second.

Compared with “GTTTGTATGTCCAAATGTACATATGATTTTATGAAA [XGTACX_site6595]”, “AAAAAATATTGAAGTACACACATTATAAACTTTTTT [CACACA_site5029]” is lower in “gcPBM binding intensity (ln)” value: 7.07 for the first, 6.81 for the second.

First: ACCTAATTCAAATACAGTACATATACAATATATATA [XGTACX_site2779]
Second: AAAATTAAAAATTACTGTACGTATTAGAGAATAAAT [XGTACX_site2567]
The “gcPBM binding intensity (ln)” value of the first is higher: 7.44 for the first, 7.19 for the second.

Compared with “AAAATATTAATTAATACATGCATATATATATATATA [TGCATGCA_site585]”, “TATATTGTATAAAAATGTACATGCAATAAATTTAGT [XGTACX_site5621]” is lower in “gcPBM binding intensity (ln)” value: 9.66 for the first, 7.71 for the second.

Compared with “AAAAAATTGACTAATGCACACAATTACATATATATA [CACACA_site1689]”, “CAATTTTTCTATCATTGTACTTTTATATAATAGTGT [XGTACX_site1810]” is lower in “gcPBM binding intensity (ln)” value: 7.86 for the first, 7.15 for the second.

First: AATTGTTCTATGATTTGTACACACTTTTTTTTAAAA [XGTACX_site5984]
Second: ATTATAAATACACGCACACACACTTATATATATATA [CACACA_site5776]
The “gcPBM binding intensity (ln)” value of the first is lower: 6.91 for the first, 9.26 for the second.

First: ATGAAATATATTATATGTACATATTTATTTTTTATA [XGTACX_site7319]
Second: ATTTTTTACGTATAGTACAAAGTTTTATGATACATA [CACACA_negctrl_site965]
The “gcPBM binding intensity (ln)” value of the first is higher: 7.07 for the first, 7.01 for the second.

Compared with “CATTATAAAAAATAAAAAAGAAATAATTGTATATGC [CACACA_negctrl_site478]”, “AAATAGTAAATAAGGGGTACAAAAAAAAAAAAAAAA [XGTACX_site8362]” is lower in “gcPBM binding intensity (ln)” value: 7 for the first, 6.92 for the second.

Reference: the supplement of paper PMC11417369
